The structures appear in SMILES notation. In all, about 110,000 compounds went through this assay and about 230 (0.21%) showed an effect of 50% or more. The list shows a part of the results.

These results are taken from publication PMC6919601, “Identification of Plasmodium dipeptidyl aminopeptidase allosteric inhibitors by high throughput screening” (PLoS ONE, 2019).
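Also: 30 min substrate incubation versus DMSO and 10 µM JCP410 controls.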

The target of the test is DPAP1 (Plasmodium falciparum, UniProt Q8IIJ9). In words: primary screen, percent inhibition; read by cleavage of a fluorogenic dipeptide substrate; higher = more effect of the substance. Details: species or system P. falciparum D10 trophozoite lysates; single well.
Sequence of DPAP1 (Q8IIJ9 whole entry, looked up): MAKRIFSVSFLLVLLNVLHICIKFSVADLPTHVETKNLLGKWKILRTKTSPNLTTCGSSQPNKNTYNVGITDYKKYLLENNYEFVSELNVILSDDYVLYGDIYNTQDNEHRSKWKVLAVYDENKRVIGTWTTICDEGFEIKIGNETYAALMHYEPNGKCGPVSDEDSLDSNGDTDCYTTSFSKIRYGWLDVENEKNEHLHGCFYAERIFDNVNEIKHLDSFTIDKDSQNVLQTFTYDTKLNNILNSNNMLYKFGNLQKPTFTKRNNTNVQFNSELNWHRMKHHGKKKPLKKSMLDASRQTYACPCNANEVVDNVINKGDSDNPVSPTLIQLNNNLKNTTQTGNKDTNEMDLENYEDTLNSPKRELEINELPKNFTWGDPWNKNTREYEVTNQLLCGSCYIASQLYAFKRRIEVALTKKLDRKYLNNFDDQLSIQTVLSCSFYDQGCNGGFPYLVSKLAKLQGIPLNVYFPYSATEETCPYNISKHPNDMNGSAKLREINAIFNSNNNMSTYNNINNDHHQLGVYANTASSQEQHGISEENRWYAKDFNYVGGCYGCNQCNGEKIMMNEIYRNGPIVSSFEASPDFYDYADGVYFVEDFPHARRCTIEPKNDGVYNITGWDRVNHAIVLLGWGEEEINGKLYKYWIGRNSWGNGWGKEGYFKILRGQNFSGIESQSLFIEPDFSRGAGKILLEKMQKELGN
With `Cc1ccc(NC(=O)CCOc2ccccc2)cc1C`, the “% Inhibition @ 10 uM” value is 4.67%.

Consider `COc1cc(/C=C2\SC(=O)N(Cc3ccc(F)cc3)C2=O)c(Br)cc1O`, for which the “% Inhibition @ 10 uM” value was determined as 1.81%.

Regarding `Cc1ccc(C23CC4CC(C2)CC(C(C)N)(C4)C3)cc1C` (stereo not shown), the “% Inhibition @ 10 uM” value is given as -4.67%.

Regarding `O=S1(=O)CC2OC3CS(=O)(=O)CC3OC2C1` (stereo not shown), the “% Inhibition @ 10 uM” value is -3.98%.

Turning to `NS(=O)(=O)c1ccc(CNC(=O)CSc2nc3cccnc3[nH]2)cc1`, the “% Inhibition @ 10 uM” value is listed as -1.85%.

As to `CCOC(=O)c1cnc2c(ccc3ccccc32)c1NCCCCCO`, the “% Inhibition @ 10 uM” value is given as -2.65%.

Regarding `CCc1ccc(S(=O)(=O)c2cnc3ccc(OC)cc3c2O)cc1`, the “% Inhibition @ 10 uM” value was -1.7%.

`CC(C)(C)NCCCCOc1ccc(Br)cc1`: the “% Inhibition @ 10 uM” value was -4.18%.

Consider `Nc1nc(O)ncc1-c1ccc(-c2ccccc2)s1`, for which the “% Inhibition @ 10 uM” value was -7.89%.

On to `O=C(O)c1c(O)nnc(-c2ccccc2)c1-c1ccccc1`, for which the “% Inhibition @ 10 uM” value was found to be 0.221%.

Regarding `CC(=O)N1[C@@H](c2ccc(Cl)cc2)SC[C@H]1C(=O)N1CCN(c2ccccc2)CC1`, the “% Inhibition @ 10 uM” value came to 0.35%.

As for `CC(=O)C1=C(O)C(=O)N(Cc2ccccc2)C1c1ccccc1F` (stereo not shown), the “% Inhibition @ 10 uM” value is listed as -5.23%.

Regarding `O=c1ncn(-c2ccc(F)cc2)c2ncccc12`, the “% Inhibition @ 10 uM” value is listed as 1.94%.

For `Clc1ccc(N2CCN(Cc3ccc(Cl)c(Cl)c3)CC2)cc1`, the “% Inhibition @ 10 uM” value is -5.5%.

`O=C(CCCCC(=O)N1CCN(c2ccccc2)CC1)N1CCN(c2ccccc2)CC1`: the “% Inhibition @ 10 uM” value is on record as -1.84%.

In the case of `FC(F)(F)c1ccccc1-c1ncnn1-c1ccc(Cl)cc1`, the “% Inhibition @ 10 uM” value is -4.03%.

Regarding `CC(C)CC(C(=O)NCC#N)c1csc(N2CCN(C)CC2)n1` (stereo not shown), the “% Inhibition @ 10 uM” value is listed as -4.72%.

Consider `COc1cc(OC)nc(Oc2cccc(Cl)c2C)n1`, for which the “% Inhibition @ 10 uM” value was found to be 1.89%.

As for `Cc1ccc(NC(=O)CC2SC(Nc3ccc(C)c(C)c3)=NC2=O)cc1` (stereo not shown), the “% Inhibition @ 10 uM” value came to 3.35%.

Turning to `CC1(C)OC(=O)N(CCc2ccccc2)C1(C)O` (stereo not shown), the “% Inhibition @ 10 uM” value was -0.99%.

On to `O=C(C1=C(O)C(=O)N(CCCn2ccnc2)C1c1ccccc1)c1cc2ccccc2o1` (stereo not shown), for which the “% Inhibition @ 10 uM” value is given as 3.65%.

With `CCOc1ccc(/C=c2\sc3nc(-c4ccc(F)cc4)nn3c2=O)cc1OC`, the “% Inhibition @ 10 uM” value is recorded as -1.18%.

As to `COc1ccc(C(=O)Nc2cccnc2Cl)c(OC)n1`, the “% Inhibition @ 10 uM” value was determined as 1.88%.

As to `Cc1ccc(C(=O)N/C(=C\c2ccco2)C(=O)NCCN2CCOCC2)cc1C`, the “% Inhibition @ 10 uM” value was determined as 0.777%.

As to `Cc1cc(CNC(=O)c2c(F)cccc2F)c2ccccc2n1`, the “% Inhibition @ 10 uM” value came to 0.9%.

`COc1ccc(CNc2nc(-c3ccco3)nn2C(=O)COc2ccc(Cl)cc2)cc1`: the “% Inhibition @ 10 uM” value was 5.06%.

In the case of `CC1CC(Nc2ccccc2)c2ccccc2N1C(=O)c1ccc([N+](=O)[O-])cc1` (stereo not shown), the “% Inhibition @ 10 uM” value was 1.41%.

Turning to `O=C(NCc1cccnc1)c1cc(C2CC2)[nH]n1`, the “% Inhibition @ 10 uM” value stood at 2.62%.

`O=C(NCc1ccco1)c1cnn2c(C(F)(F)F)cc(-c3ccc(Br)cc3)nc12`: the “% Inhibition @ 10 uM” value is given as 4.03%.

For the molecule `CCN(CC)CCNC(=O)c1nnc(-c2ccc3c(c2)OCO3)o1`, the “% Inhibition @ 10 uM” value was found to be 0.943%.

For `CCN1CCCC1CNC(=O)CN(C)c1nnc(N2CCCC2=O)s1` (stereo not shown), the “% Inhibition @ 10 uM” value was -5.63%.

Regarding `COc1cccc(Cn2c(C)c(CNCC(C)c3ccccc3)c(C(=O)O)c2C)c1` (stereo not shown), the “% Inhibition @ 10 uM” value is on record as -3.67%.

Regarding `c1ccc(-c2nc3cnc4ccccc4c3s2)cc1`, the “% Inhibition @ 10 uM” value was 14.9%.

As to `CCCn1c2ccccc2c2cnn(CC(=O)N3CCN(Cc4ccc5c(c4)OCO5)CC3)c(=O)c21`, the “% Inhibition @ 10 uM” value is on record as -0.238%.

With `Cc1nc2ccc(-c3ccc4nc(C)oc(=O)c4c3)cc2c(=O)o1`, the “% Inhibition @ 10 uM” value was -0.0217%.

As to `CCN(CC)CCCOc1cccc2ccccc12`, the “% Inhibition @ 10 uM” value turned out to be 3%.

Regarding `Clc1cccc2c1Sc1ccccc1CC2N1CCNCC1` (stereo not shown), the “% Inhibition @ 10 uM” value is on record as -2.29%.

Turning to `CC(C)NC(=O)COc1ccc(S(=O)(=O)NC(C)c2ccccc2)cc1` (stereo not shown), the “% Inhibition @ 10 uM” value was -2.74%.

For the molecule `CCO/C(O)=C1\C(C)=Nc2nc(SCc3ccccc3Cl)nn2C1c1cccs1` (stereo not shown), the “% Inhibition @ 10 uM” value was 4.85%.

For the molecule `CCCCNc1nc(Oc2ccc(OCC)nn2)nc(N(C)C)n1`, the “% Inhibition @ 10 uM” value was -3.49%.

Regarding `CC(C)C(=O)Nc1c2c(nc3ccccc13)N(C)CC2`, the “% Inhibition @ 10 uM” value is recorded as -1.98%.

For the molecule `CCOc1cc(S(=O)(=O)NCc2ccccn2)c(C)cc1C`, the “% Inhibition @ 10 uM” value is reported as -0.469%.

In the case of `COc1cccc(C2=NOC(C(=O)N3C(C)CCCC3C)C2)c1` (stereo not shown), the “% Inhibition @ 10 uM” value is -3.45%.

As for `NS(=O)(=O)c1ccc2c(c1)C(=O)c1cc(S(N)(=O)=O)ccc1-2`, the “% Inhibition @ 10 uM” value is listed as 7.49%.

`O=C1c2cccc3cccc(c23)C(=O)N1c1ccc(F)cc1`: the “% Inhibition @ 10 uM” value was -0.69%.

For `CCN1CCN(CC2=CC[C@H]3C[C@@H]2C3(C)C)CC1`, the “% Inhibition @ 10 uM” value is given as -0.817%.

For `O=C1N=C(Nc2ccc(F)cc2)S/C1=C\c1ccc2c(c1)OCO2`, the “% Inhibition @ 10 uM” value was -4.72%.

With `COc1ccc(Oc2nc3c(C)cccn3c(=O)c2/C=C(\C#N)c2nc3ccccc3n2C)cc1`, the “% Inhibition @ 10 uM” value is given as -1.43%.

`Cn1c(=O)c2nc(N3CCN(CCO)CC3)[nH]c2n(C)c1=O`: the “% Inhibition @ 10 uM” value came to 4%.

As to `CCCS(=O)(=O)N1N=C(c2ccc(Cl)cc2)CC1c1ccco1` (stereo not shown), the “% Inhibition @ 10 uM” value is -0.297%.

With `Cc1ccccc1S(=O)(=O)Nc1cccc(NS(=O)(=O)c2ccccc2C)n1`, the “% Inhibition @ 10 uM” value was determined as 4.41%.

For `Oc1nc(Nc2ccccc2)nc2[nH]cnc12`, the “% Inhibition @ 10 uM” value came to 3.48%.

For `CC1CC(C)CN(c2cnn(C34CC5CC(CC(C5)C3C(=O)O)C4)c(=O)c2Cl)C1` (stereo not shown), the “% Inhibition @ 10 uM” value was -0.522%.

For `Cc1ccc(/C=C(\NC(=O)c2ccccc2)C(=O)NCCN2CCOCC2)o1`, the “% Inhibition @ 10 uM” value is 5.9%.

For the molecule `CCOc1ccccc1C1C=C(c2ccc(OC)cc2)Nc2ncnn21` (stereo not shown), the “% Inhibition @ 10 uM” value was -3.37%.

For the molecule `COC(=O)c1ccc(OCC2c3cc(OC)c(OC)cc3CCN2C(=O)/C=C/c2ccccc2)cc1` (stereo not shown), the “% Inhibition @ 10 uM” value is listed as 0.868%.

With `C=CCOc1ccc(/C=C2\SC(=O)N(CC(=O)N3CCOCC3)C2=O)cc1OC`, the “% Inhibition @ 10 uM” value is -0.68%.

Turning to `Cn1c(=O)[nH]c(=O)c2c1nc(SCC(=O)O)n2Cc1ccccc1`, the “% Inhibition @ 10 uM” value is on record as -2.59%.

With `Cc1ccc2c(c1)C(N1CCCC1=O)CC(c1ccco1)N2` (stereo not shown), the “% Inhibition @ 10 uM” value is on record as -2.29%.

In the case of `N#CC1=C(N)Oc2cc(O)ccc2C1c1ccccc1F` (stereo not shown), the “% Inhibition @ 10 uM” value is reported as -0.413%.

Regarding `CCOc1ccc(C2N3CC4(C)CN2CC(c2ccccc2)(C3)C4=O)cc1OC` (stereo not shown), the “% Inhibition @ 10 uM” value amounted to 2.05%.

Take `CCSc1nc(-c2ccccc2)cc(-c2ccccc2)c1C#N`: the “% Inhibition @ 10 uM” value turned out to be 2.47%.

As to `Cc1ccc(S(=O)(=O)c2nnn3c2nc(NCCCOC(C)C)c2cc(Cl)ccc23)cc1C`, the “% Inhibition @ 10 uM” value is given as -3.3%.

Consider `CCN1C(=O)NC(c2ccc(Cl)cc2)C(C(=O)OCCc2ccccc2)=C1C` (stereo not shown), for which the “% Inhibition @ 10 uM” value is on record as 4.35%.
